The source of these data is paper PMC4336329 (PLoS ONE, 2015).

In all, about 310,000 compounds went through this assay and about 2,200 (0.71%) showed an effect of 50% or more. Effects have a minus sign here. This is one part of the list.

The target in the assay is human ether-à-go-go-related gene (hERG) potassium channel (human, UniProt Q12809). Description: primary screen, population patch clamp on CHO cells stably expressing hERG.
human ether-à-go-go-related gene (hERG) potassium channel, sequence (Q12809 whole entry, looked up): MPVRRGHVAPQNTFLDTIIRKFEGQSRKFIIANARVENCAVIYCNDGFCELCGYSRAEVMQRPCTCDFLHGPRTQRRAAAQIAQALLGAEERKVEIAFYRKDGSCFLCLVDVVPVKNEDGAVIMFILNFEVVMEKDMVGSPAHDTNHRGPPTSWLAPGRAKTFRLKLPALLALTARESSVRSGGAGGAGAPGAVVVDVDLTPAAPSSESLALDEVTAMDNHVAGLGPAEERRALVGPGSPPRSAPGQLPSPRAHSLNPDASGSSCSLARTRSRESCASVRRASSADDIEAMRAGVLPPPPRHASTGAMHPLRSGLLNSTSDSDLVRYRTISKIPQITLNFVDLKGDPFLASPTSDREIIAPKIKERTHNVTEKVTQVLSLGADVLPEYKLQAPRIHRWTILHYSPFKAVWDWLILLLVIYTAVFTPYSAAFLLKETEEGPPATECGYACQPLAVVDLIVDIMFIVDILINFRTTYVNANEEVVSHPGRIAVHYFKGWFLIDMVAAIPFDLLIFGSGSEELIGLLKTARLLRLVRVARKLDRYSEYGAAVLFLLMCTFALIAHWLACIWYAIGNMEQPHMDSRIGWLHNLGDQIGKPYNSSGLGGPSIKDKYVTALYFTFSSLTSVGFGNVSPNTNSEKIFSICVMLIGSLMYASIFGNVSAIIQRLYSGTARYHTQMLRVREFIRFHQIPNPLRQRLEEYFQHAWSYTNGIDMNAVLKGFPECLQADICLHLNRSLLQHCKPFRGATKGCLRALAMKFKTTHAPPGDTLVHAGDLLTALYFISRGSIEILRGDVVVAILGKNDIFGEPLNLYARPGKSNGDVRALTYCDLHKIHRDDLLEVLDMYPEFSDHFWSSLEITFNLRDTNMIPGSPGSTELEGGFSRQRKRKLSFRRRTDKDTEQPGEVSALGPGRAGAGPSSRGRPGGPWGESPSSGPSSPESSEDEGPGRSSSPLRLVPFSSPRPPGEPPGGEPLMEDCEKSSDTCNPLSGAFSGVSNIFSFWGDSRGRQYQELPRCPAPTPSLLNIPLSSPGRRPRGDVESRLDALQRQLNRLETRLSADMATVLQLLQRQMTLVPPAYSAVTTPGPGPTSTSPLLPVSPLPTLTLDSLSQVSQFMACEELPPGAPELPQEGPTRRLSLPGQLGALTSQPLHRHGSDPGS
For the molecule `CCn1c2c(c(C)cc1=O)C(=O)CC(C)(C)C2`, the “hERG current change (%, negative = inhibition) at 1uM” value amounted to 19.1%. Consider `Cc1nc2ncnn2c(C)c1CCC(=O)NCc1ccco1`, for which the “hERG current change (%, negative = inhibition) at 1uM” value was 6.37%. Consider `CCCCC1CCC(C(=O)N2CCOCC2)CC1` (centres unmarked), for which the “hERG current change (%, negative = inhibition) at 1uM” value is 7.45%.

With `Clc1ccc(-c2nc(-c3ccncc3)no2)c(Cl)c1`, the “hERG current change (%, negative = inhibition) at 1uM” value amounted to 11.9%.

Take `CC1(C(=O)O)CCC(C(=O)NC2CCCCC2)C1(C)C` (centres unmarked): the “hERG current change (%, negative = inhibition) at 1uM” value turned out to be 10.5%. The figure for `CC1(C)Cc2c(C#N)c(NCCO)nc(-c3ccco3)c2CO1` is 9.42%; for `O=C(Nc1ccc(Cl)c(S(=O)(=O)Nc2ccccc2Cl)c1)c1cccs1` it is 2.21%; for `COc1ccc(C(=O)NNC(=O)CSc2nnc(C(C)C)n2C)cc1` it is 11.1%. On to `CCOc1ccc(N/C=C/C(=O)c2ccccc2)cc1`, for which the “hERG current change (%, negative = inhibition) at 1uM” value is reported as 12.6%.

Consider `COc1cc(C2N(c3ccc(F)cc3)C(=O)C3CCCN32)cc(OC)c1OC` (centres unmarked), for which the “hERG current change (%, negative = inhibition) at 1uM” value turned out to be 1.81%. The figure for `COCC1CCCCN1C(=O)c1ccc2oc(CCc3ccccc3)nc2c1` (centres unmarked) is 6.42%. Under `C=CCN=C1NN=C(c2ccc3c(c2)OCCO3)CS1` stands 15%; under `CC1=C(C(=O)Nc2ccccc2)SCCO1`, 9.63%; under `Cc1cc2cc(C)c3nnc(SCC(=O)NCc4ccc5c(c4)OCO5)n3c2cc1C`, 5.45%. For `Cc1c(C(=O)COC(C)(C)C)[nH]c2ccccc12`, the “hERG current change (%, negative = inhibition) at 1uM” value stood at 15.2%. The figure for `O=C(Nc1ccncc1)c1ccc2ncsc2c1` is 5.27%; for `CCCn1c(SCN2C(=O)c3ccccc3C2=O)nc2cc(Cl)ccc2c1=O` it is 8.9%.

As to `CCC(C)C(NS(=O)(=O)c1ccc(C)cc1)C(=O)Oc1ccc2c3c(c(=O)oc2c1)CCC3` (centres unmarked), the “hERG current change (%, negative = inhibition) at 1uM” value was 11.3%. The figure for `O=C(Cn1nnc2c(cnn2-c2ccc(F)cc2)c1=O)Nc1ccccc1C(F)(F)F` is 1.13%.

Turning to `CCOc1ccc(Cl)cc1/C=C1/C(=O)ON=C1C`, the “hERG current change (%, negative = inhibition) at 1uM” value is reported as 17.4%. The figure for `COc1ccc(/C=C2\SC(=Nc3ccccc3)NC2=O)cc1` is 14.2%; for `COc1cc(/C=N/NC(=O)CSc2n[nH]c(=O)[nH]c2=O)cc(OC)c1O` it is 15.9%. Under `CCC(=O)N(CC(=O)Nc1sc(C)c(C)c1C(N)=O)C1CCCC1` stands 5.57%; under `Cc1ccc(N2C(S)=C(C#N)C(=O)NC2c2ccco2)cc1` (centres unmarked), 1.45%. Under `COC(=O)C1=C(c2c(C)noc2C)C[C@@H]2CC[C@H]1N2C(=O)NCCOc1ccccc1` stands 14.2%; under `Clc1ccccc1/C=N/Nc1cc(N2CCOCC2)ncn1`, 16.9%. For the molecule `COC(=O)CCCN=C1SCCN1Cc1ccccc1`, the “hERG current change (%, negative = inhibition) at 1uM” value is given as 13.7%. Under `Cc1cc(NS(=O)(=O)c2ccccc2)no1` stands 12%; under `COc1ccc(S(=O)(=O)N(C)c2ccc(C(=O)Nc3ccccc3C(=O)N3CCOCC3)cc2)cc1OC`, 14.6%; under `O=C(NCCc1ccccc1)c1nc(CS(=O)(=O)c2ccc(Cl)cc2)no1`, 13.1%. Under `CCOC(=O)c1sc(NCCNc2nc(C)c(C(=O)OCC)s2)nc1C` stands 6.51%; under `COc1cc(/C(C)=N/NC(=O)C(O)(c2ccccc2)c2ccccc2)ccc1O`, -0.201%. As to `Cc1cccc(Cn2c(C)c(C)c3cc(C(=O)NCCN4CCOCC4)ccc32)c1`, the “hERG current change (%, negative = inhibition) at 1uM” value is 9.03%. On to `CCN(Cc1ccccc1)C(=O)C1CCN(c2ncnc3c2nc2n3CCCCC2)CC1`, for which the “hERG current change (%, negative = inhibition) at 1uM” value came to 13.7%. Turning to `CCOC(=O)[C@@H]1[C@H]2COc3cc(OC)ccc3[C@@H]2N2C(=O)N(c3cccc(C)c3)C(=O)[C@@]12C`, the “hERG current change (%, negative = inhibition) at 1uM” value was found to be 4.15%.

With `O=S(=O)(Nc1cccc2cccnc12)c1ccccc1`, the “hERG current change (%, negative = inhibition) at 1uM” value is recorded as 13%. The figure for `Cc1ccccc1NC(=O)c1cccc2nc3ccccc3nc12` is 12.5%; for `COc1ccc(NC(=O)CCNC(=O)c2ccco2)cc1Cl` it is 12.7%; for `CCN1CCCC1CNC(=O)C(=O)NC(C)c1ccccc1` (centres unmarked) it is 7.78%.

As for `CC(C)C(=O)Nc1nnc(Cc2ccccc2)s1`, the “hERG current change (%, negative = inhibition) at 1uM” value is reported as -12.3%. As for `Cc1[nH]n2c(=O)cc(C(C)(C)C)nc2c1-c1ccccc1`, the “hERG current change (%, negative = inhibition) at 1uM” value is on record as -2.57%.

Consider `CCCOC(=O)/C(=C\C=C\c1ccccc1)NC(=O)c1ccccc1`, for which the “hERG current change (%, negative = inhibition) at 1uM” value came out at 12.7%. The figure for `CCC1c2ccc(C)n2CCN1C(=O)Nc1ccc(F)cc1` (centres unmarked) is 7.57%; for `COCCCNC(=O)c1cn(CCOC)c(=O)c2c1c1ccccc1n2C` it is 13.1%; for `O=C(NCc1ccc(F)cc1)C1CCCN1S(=O)(=O)c1ccccc1C(F)(F)F` (centres unmarked) it is 5.13%. The figure for `Clc1ccccc1Cn1nnc2c(Nc3ccccc3)ncnc21` is 5.61%. Under `Cc1cc(SCC(=O)c2cccs2)nc2ccccc12` stands -0.195%; under `C=CCC(NCc1ccccc1)c1ccc(OC)cc1.O=C(O)C(=O)O` (centres unmarked), 15.5%.

As for `NC(=O)C1CCN(C(=O)c2cc3c(s2)CCCCC3)CC1`, the “hERG current change (%, negative = inhibition) at 1uM” value was 8.45%. In the case of `C#Cc1ccc([C@H]2C=C(C(=O)N3CCN(Cc4ccccc4)CC3)O[C@@H](OCC)[C@@H]2CCCO)cc1`, the “hERG current change (%, negative = inhibition) at 1uM” value is recorded as 8.12%. As to `C/C(CC(=O)C(F)(F)F)=N\NC(=O)/C(C#N)=C/N(C)C`, the “hERG current change (%, negative = inhibition) at 1uM” value amounted to 10.3%. The figure for `Cc1ccsc1CNS(=O)(=O)c1ccc(F)cc1` is 1.61%; for `CC/C=C\C/C=C\C/C=C\CCCCCCCC(=O)O` it is 9.04%; for `O=C(Nc1cc(=O)[nH]c2ncnn12)c1ccccc1` it is -13.3%. In the case of `COc1ccccc1C1C(C(=O)c2cc3ccccc3o2)=C(O)C(=O)N1CCN(C)C` (centres unmarked), the “hERG current change (%, negative = inhibition) at 1uM” value is 16.9%.

`CC(=O)N1CCN(c2ccc(NC(=O)c3ccc(C(C)(C)C)cc3)cc2)CC1`: the “hERG current change (%, negative = inhibition) at 1uM” value stood at 16%. Consider `Cc1ccc(/C=C/C(=O)Nc2nnc(C)s2)o1`, for which the “hERG current change (%, negative = inhibition) at 1uM” value was 15.5%. The figure for `CCOc1ccc(NC(=O)CSc2n[nH]c(=O)n2-c2ccccc2)cc1` is 2.07%; for `Cc1ccc(C(=O)c2cc3ccccc3o2)cc1C` it is 8.45%.

Turning to `CCOC(=O)N1CCC(Nc2nc3ccccc3nc2NS(=O)(=O)c2ccc(Cl)cc2)CC1`, the “hERG current change (%, negative = inhibition) at 1uM” value was found to be 8.73%.

Take `Cc1[nH]ccc(=O)c1OCc1ccccc1`: the “hERG current change (%, negative = inhibition) at 1uM” value is given as 25.2%.

Regarding `Cc1nc2ccccc2nc1CN1CCN(Cc2ccc(F)c(F)c2)C(CCO)C1` (centres unmarked), the “hERG current change (%, negative = inhibition) at 1uM” value is listed as -6.36%.

Turning to `COc1ccc(CNC(=O)CN(C(=O)CCC(=O)Nc2ccccn2)c2ccc3c(c2)OCO3)cc1`, the “hERG current change (%, negative = inhibition) at 1uM” value was 8.56%.

Take `Nc1c(C(=O)OCC(=O)NCc2ccccc2)[nH]c(=O)[nH]c1=O`: the “hERG current change (%, negative = inhibition) at 1uM” value turned out to be 16.4%.

Consider `CCOc1ccccc1N1CCN(C(=O)COc2ccc3c(C)cc(=O)oc3c2)CC1`, for which the “hERG current change (%, negative = inhibition) at 1uM” value is listed as 3.38%. Turning to `COCCn1c(C(C)C)nc2sc3ccccc3c(=O)c2c1=O`, the “hERG current change (%, negative = inhibition) at 1uM” value is on record as -6.19%. The figure for `CN1CCN(c2cc(C(F)(F)F)nc3ccc(F)cc23)CC1` is -0.83%; for `O=C(NCCN1C(=O)S/C(=C\c2ccc(OC(F)F)cc2)C1=O)c1cnccn1` it is -19.2%; for `COC(=O)[C@@H](NC(=O)Nc1cccc(Br)c1)C(C)C` it is 5.99%.

With `CC(NC(=O)CCC(=O)NC(C)c1ccccc1)c1ccccc1` (centres unmarked), the “hERG current change (%, negative = inhibition) at 1uM” value was found to be 17.3%.

Consider `CON(C)c1nc(OCC#N)nc(N(C)C)n1`, for which the “hERG current change (%, negative = inhibition) at 1uM” value turned out to be 18.5%. Under `CCOC(=O)c1ccc(S(=O)(=O)N2CC(=O)Nc3ccccc32)cc1` stands 13.2%; under `Cc1ccc(-c2nc3ccccc3o2)cc1NC(=O)Cc1cccs1`, 18.8%. Under `CN1C(=O)Nc2cccc3cccc1c23` stands 11.1%. The figure for `COc1ccc(CCn2c(=O)[nH]c3cc(C(=O)N4CCN(c5ccccc5)CC4)ccc3c2=O)cc1OC` is 6%. For the molecule `O=C1CCC(=O)N1c1ccc(CSc2nnnn2C2CCCCC2)cc1`, the “hERG current change (%, negative = inhibition) at 1uM” value stood at 1.97%. Under `O=C1/C(=C\c2ccncc2)N2CCC1CC2` stands 14%; under `CCCC(=O)Nc1sc2c(c1C(=O)Nc1ccccn1)CCCC2`, 8.8%; under `CCc1n[nH]c(=S)n1/N=C/c1ccc(N(C)c2ccccc2)cc1`, 12.2%. As to `Cn1cnnc1SCC(=O)NC(=O)NC1CCCC1`, the “hERG current change (%, negative = inhibition) at 1uM” value is 3.17%.

For `O=C(NCC(c1ccco1)N1CCOCC1)C1CCCCC1` (centres unmarked), the “hERG current change (%, negative = inhibition) at 1uM” value is 1.12%. Under `COc1ccc(-c2nnn(-c3cc(Cl)cc(Cl)c3)c2N)cc1` stands 9.38%; under `COc1ccccc1NS(=O)(=O)c1ccc2oc(SCC(=O)N3CCNC3=O)nc2c1`, 2.59%. The figure for `Cc1ccccc1Cc1c(C)nc2nc(SCC(=O)N3CCC4(CC3)OCCO4)nn2c1C` is 5.08%; for `CCOC(=O)C1CCN(C(=O)COC(=O)c2oc3ccccc3c2C)CC1` it is -7.33%; for `CCOc1ccc(NC(=O)Nc2cccc(C)n2)cc1` it is 11.7%.

With `O=C(CCl)N(C1CCCC1)C1CCS(=O)(=O)C1` (centres unmarked), the “hERG current change (%, negative = inhibition) at 1uM” value is 17%. For the molecule `O=C(Nc1ccc(F)cc1)C1CCCN(S(=O)(=O)c2ccc(-n3cnnn3)cc2)C1` (centres unmarked), the “hERG current change (%, negative = inhibition) at 1uM” value turned out to be 6.76%. Under `CCC(C(=O)OCC(=O)Nc1ccccc1-c1ccccc1)c1ccccc1` (centres unmarked) stands 4.45%; under `N/C(=N\OC(=O)c1ccc(Br)o1)c1ccccn1`, 9.46%.

On to `COc1cc(/C=c2/sc3nc(-c4ccccc4)c(-c4ccccc4)n3c2=O)cc(OC)c1OC`, for which the “hERG current change (%, negative = inhibition) at 1uM” value is given as 2.36%. The figure for `c1ccc(Cc2nnc3sc(-c4ccc5c(c4)OCO5)nn23)cc1` is 9.58%.
